Assay results from the BET-seq Pho4 binding data (Le et al. 2018).
This is one part of the list. Values were computed here from the reads of four pooled replicates and scatter widely.

What follows are sequences tested against T1, Pho4 (S. cerevisiae) (UniProt P07270) (assay: relative binding free energy (BET-seq); higher = weaker binding). Conditions: reference: library average.
T1 sequence: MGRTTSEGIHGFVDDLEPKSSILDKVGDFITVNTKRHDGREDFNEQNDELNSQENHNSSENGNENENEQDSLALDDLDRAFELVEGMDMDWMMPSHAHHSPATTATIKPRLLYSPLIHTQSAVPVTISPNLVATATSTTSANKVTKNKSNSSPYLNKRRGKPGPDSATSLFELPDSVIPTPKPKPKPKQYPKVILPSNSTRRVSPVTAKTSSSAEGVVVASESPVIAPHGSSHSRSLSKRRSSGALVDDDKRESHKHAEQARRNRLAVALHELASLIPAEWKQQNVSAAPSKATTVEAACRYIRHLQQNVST
TTGTACACGTGGTCAT was tested, and the “relative binding free energy” value was -0.17 kcal/mol.
TAATTCACGTGTTATG was tested, and the “relative binding free energy” value was 0.32 kcal/mol.
For GTTGGCACGTGTGCGT, the “relative binding free energy” value was -0.2 kcal/mol.
In the case of GGGTGCACGTGTGGTA, the “relative binding free energy” value is reported as 0.12 kcal/mol.
In the case of GCGGTCACGTGAAAGG, the “relative binding free energy” value is reported as 0.4 kcal/mol.
For CCTGTCACGTGTGTAG, the “relative binding free energy” value was 0.13 kcal/mol.
In the case of AAATTCACGTGGGGTG, the “relative binding free energy” value is reported as 0.09 kcal/mol.
TCTTGCACGTGCGGGG was tested, and the “relative binding free energy” value was -0.05 kcal/mol.
In the case of AATATCACGTGTATGA, the “relative binding free energy” value is reported as 0.06 kcal/mol.
With TTCTGCACGTGTAAGA the “relative binding free energy” value was 0.16 kcal/mol.
In the case of TAGTTCACGTGACTGT, the “relative binding free energy” value is reported as 0.25 kcal/mol.
In the case of ATTTACACGTGGCTTG, the “relative binding free energy” value is reported as 0.18 kcal/mol.
GTGAGCACGTGAGTGA was tested, and the “relative binding free energy” value was 0.26 kcal/mol.
In the case of TGACTCACGTGTGGGG, the “relative binding free energy” value is reported as 0.22 kcal/mol.
TATGGCACGTGCGCGG was tested, and the “relative binding free energy” value was -0.33 kcal/mol.
For TAGGACACGTGCGAGG, the “relative binding free energy” value was -0.02 kcal/mol.
In the case of GTGTGCACGTGGGCGC, the “relative binding free energy” value is reported as -0.19 kcal/mol.
With TAAAACACGTGGTTTG the “relative binding free energy” value was -0.07 kcal/mol.
GATTTCACGTGATAGT was tested, and the “relative binding free energy” value was 0.46 kcal/mol.
GAAGGCACGTGAGTGT was tested, and the “relative binding free energy” value was 0.28 kcal/mol.
GGTAACACGTGTAGGG was tested, and the “relative binding free energy” value was 0.12 kcal/mol.
TTTGCCACGTGTGGTG was tested, and the “relative binding free energy” value was -0.02 kcal/mol.
TCGGGCACGTGGCGCG was tested, and the “relative binding free energy” value was -0.22 kcal/mol.
For AATTGCACGTGATTGT, the “relative binding free energy” value was 0.1 kcal/mol.
In the case of GGATACACGTGGTTTT, the “relative binding free energy” value is reported as -0.03 kcal/mol.
With GAATACACGTGGGGGA the “relative binding free energy” value was 0.08 kcal/mol.
For GGGTCCACGTGCGAGT, the “relative binding free energy” value was -0.01 kcal/mol.
For AATGACACGTGAGAGG, the “relative binding free energy” value was 0.27 kcal/mol.
In the case of TGGTTCACGTGTAGGT, the “relative binding free energy” value is reported as 0.25 kcal/mol.
In the case of TTTCGCACGTGTCAGG, the “relative binding free energy” value is reported as 0.1 kcal/mol.
For GTTCTCACGTGGGAAT, the “relative binding free energy” value was 0.27 kcal/mol.
With TGTTTCACGTGAGCTA the “relative binding free energy” value was 0.36 kcal/mol.
With GTAAACACGTGTGGTG the “relative binding free energy” value was 0.06 kcal/mol.
In the case of AGGAGCACGTGGGTCA, the “relative binding free energy” value is reported as -0.29 kcal/mol.
For GTCATCACGTGGTGCG, the “relative binding free energy” value was 0.22 kcal/mol.
For ACATGCACGTGTGTGT, the “relative binding free energy” value was -0.05 kcal/mol.
ATAGTCACGTGGAGTG was tested, and the “relative binding free energy” value was 0.03 kcal/mol.
For GTGTCCACGTGGGATT, the “relative binding free energy” value was 0.03 kcal/mol.
TGCGACACGTGTATGG was tested, and the “relative binding free energy” value was 0.11 kcal/mol.
With CGGGACACGTGGAGTG the “relative binding free energy” value was -0.01 kcal/mol.
For TTGGGCACGTGATCGA, the “relative binding free energy” value was -0.07 kcal/mol.
TTGGTCACGTGGTAAC was tested, and the “relative binding free energy” value was 0.26 kcal/mol.
For AAAAACACGTGAGGGT, the “relative binding free energy” value was 0.28 kcal/mol.
With GATTGCACGTGTAGAT the “relative binding free energy” value was 0.22 kcal/mol.
TACTTCACGTGGTTTT was tested, and the “relative binding free energy” value was 0.38 kcal/mol.
With AAAAGCACGTGAGGTG the “relative binding free energy” value was 0.13 kcal/mol.
TTTAGCACGTGTGGCC was tested, and the “relative binding free energy” value was 0.03 kcal/mol.
With TGTTGCACGTGACTTA the “relative binding free energy” value was 0.14 kcal/mol.
For GGATTCACGTGTTTAA, the “relative binding free energy” value was 0.35 kcal/mol.
In the case of GTACGCACGTGGGTTT, the “relative binding free energy” value is reported as -0.18 kcal/mol.
ATTGTCACGTGCTAGG was tested, and the “relative binding free energy” value was 0.06 kcal/mol.
For GGTTTCACGTGTATGC, the “relative binding free energy” value was 0.34 kcal/mol.
In the case of TGCATCACGTGGTGAG, the “relative binding free energy” value is reported as 0.06 kcal/mol.
For GTTATCACGTGCGATA, the “relative binding free energy” value was 0.2 kcal/mol.
With TCTGGCACGTGTATGG the “relative binding free energy” value was -0.04 kcal/mol.
CGTAGCACGTGGGATT was tested, and the “relative binding free energy” value was -0.06 kcal/mol.
TAAGACACGTGGGCGT was tested, and the “relative binding free energy” value was -0.13 kcal/mol.
For TATTGCACGTGTTATT, the “relative binding free energy” value was -0.02 kcal/mol.
With TGAGGCACGTGGGGTA the “relative binding free energy” value was -0.29 kcal/mol.
GAGTTCACGTGGACGT was tested, and the “relative binding free energy” value was 0.38 kcal/mol.
GGGGACACGTGATCTT was tested, and the “relative binding free energy” value was 0.24 kcal/mol.
For TAGTGCACGTGTTGCG, the “relative binding free energy” value was -0.07 kcal/mol.
For GTGCGCACGTGAGGAG, the “relative binding free energy” value was 0.22 kcal/mol.
For CGGTTCACGTGGGCTT, the “relative binding free energy” value was 0.18 kcal/mol.
TGGTCCACGTGTAGCG was tested, and the “relative binding free energy” value was 0.23 kcal/mol.
In the case of GGAGTCACGTGGCGAT, the “relative binding free energy” value is reported as 0.03 kcal/mol.
GTTGACACGTGGAGCT was tested, and the “relative binding free energy” value was 0.09 kcal/mol.
In the case of TAGTTCACGTGTATTA, the “relative binding free energy” value is reported as 0.26 kcal/mol.
In the case of ATGTTCACGTGATATG, the “relative binding free energy” value is reported as 0.19 kcal/mol.
CGGGTCACGTGGGCGG was tested, and the “relative binding free energy” value was -0.05 kcal/mol.
In the case of TATGACACGTGTAGTG, the “relative binding free energy” value is reported as -0.12 kcal/mol.
For ATTTGCACGTGGTATG, the “relative binding free energy” value was -0.05 kcal/mol.
ATATGCACGTGTACGT was tested, and the “relative binding free energy” value was -0.03 kcal/mol.
AGACTCACGTGGTTGT was tested, and the “relative binding free energy” value was 0.07 kcal/mol.
In the case of TGCAACACGTGGTTGT, the “relative binding free energy” value is reported as -0.17 kcal/mol.
For GTGAGCACGTGGGTAA, the “relative binding free energy” value was -0.23 kcal/mol.
For GGAGTCACGTGTGGAT, the “relative binding free energy” value was 0.16 kcal/mol.
With AATAGCACGTGTGAAT the “relative binding free energy” value was 0.13 kcal/mol.
For CTCGTCACGTGGCTGG, the “relative binding free energy” value was 0.06 kcal/mol.
With GGATACACGTGTGAGA the “relative binding free energy” value was 0.26 kcal/mol.
With TAGCTCACGTGTAGTA the “relative binding free energy” value was 0.28 kcal/mol.
For AGATTCACGTGGCTTG, the “relative binding free energy” value was 0.26 kcal/mol.
ATTAACACGTGAGGTA was tested, and the “relative binding free energy” value was 0.14 kcal/mol.
With AGGTTCACGTGGCGAT the “relative binding free energy” value was 0.16 kcal/mol.
With ATCATCACGTGTTTAG the “relative binding free energy” value was 0.13 kcal/mol.
TATGTCACGTGTTTGA was tested, and the “relative binding free energy” value was 0.06 kcal/mol.
With TTCGTCACGTGTATTC the “relative binding free energy” value was 0.12 kcal/mol.
For TTTGTCACGTGGGAAT, the “relative binding free energy” value was 0.04 kcal/mol.
TGGGCCACGTGTGAGG was tested, and the “relative binding free energy” value was -0.09 kcal/mol.
For TAGATCACGTGTGCTA, the “relative binding free energy” value was 0.18 kcal/mol.
In the case of GGCGCCACGTGGTCGG, the “relative binding free energy” value is reported as -0.16 kcal/mol.
In the case of TCTGGCACGTGCGGTA, the “relative binding free energy” value is reported as -0.17 kcal/mol.
ATAGGCACGTGTATAT was tested, and the “relative binding free energy” value was -0.13 kcal/mol.
GTATTCACGTGGGGTT was tested, and the “relative binding free energy” value was 0.22 kcal/mol.
With AGACGCACGTGTTTTG the “relative binding free energy” value was -0.15 kcal/mol.
In the case of CGGGACACGTGGGAGA, the “relative binding free energy” value is reported as -0.11 kcal/mol.
With TCGGTCACGTGGAGTC the “relative binding free energy” value was 0.1 kcal/mol.
In the case of TTAGTCACGTGGCAGG, the “relative binding free energy” value is reported as -0.2 kcal/mol.
TGGGTCACGTGCCGGT was tested, and the “relative binding free energy” value was 0.17 kcal/mol.
For GTACACACGTGGGGGT, the “relative binding free energy” value was -0.11 kcal/mol.
In the case of TAATGCACGTGGTGTA, the “relative binding free energy” value is reported as -0.12 kcal/mol.
CAGGTCACGTGTTTTA was tested, and the “relative binding free energy” value was 0.19 kcal/mol.
In the case of ATTAGCACGTGGTCGC, the “relative binding free energy” value is reported as 0.06 kcal/mol.
CTGGTCACGTGCGGGT was tested, and the “relative binding free energy” value was 0.05 kcal/mol.
For TTGGGCACGTGGGGAG, the “relative binding free energy” value was -0.12 kcal/mol.
CATTGCACGTGTGCTT was tested, and the “relative binding free energy” value was 0.02 kcal/mol.
For TTGTGCACGTGCCGTA, the “relative binding free energy” value was -0.06 kcal/mol.
In the case of ATGGTCACGTGGAAGT, the “relative binding free energy” value is reported as 0.15 kcal/mol.
In the case of GGAATCACGTGGGCGT, the “relative binding free energy” value is reported as 0.14 kcal/mol.
With GGTTCCACGTGGGATT the “relative binding free energy” value was 0.14 kcal/mol.
CGTAGCACGTGGTAGA was tested, and the “relative binding free energy” value was -0.07 kcal/mol.
For TTGCGCACGTGACGTG, the “relative binding free energy” value was -0.01 kcal/mol.
ATAATCACGTGAGGGG was tested, and the “relative binding free energy” value was 0.36 kcal/mol.
For GTGGGCACGTGCGTTC, the “relative binding free energy” value was -0.04 kcal/mol.
In the case of GTCTGCACGTGTGGGT, the “relative binding free energy” value is reported as 0.05 kcal/mol.
